The source of these data is article PMC7819943, “Rice protein-binding microarrays: a tool to detect cis-acting elements near promoter regions in rice”.

Some of the results follow.

This test has as its target T1, OsWOX13 (Oryza sativa, UniProt Q5QMM3 1-267).
T1 sequence: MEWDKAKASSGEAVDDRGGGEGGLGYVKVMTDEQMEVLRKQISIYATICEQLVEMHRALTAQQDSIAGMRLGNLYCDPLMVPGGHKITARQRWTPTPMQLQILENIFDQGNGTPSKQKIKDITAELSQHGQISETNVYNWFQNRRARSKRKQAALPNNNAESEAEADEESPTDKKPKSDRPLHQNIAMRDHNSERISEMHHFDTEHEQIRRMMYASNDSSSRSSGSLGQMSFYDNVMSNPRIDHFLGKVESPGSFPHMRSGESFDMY
Put plainly: protein-binding microarray (RPBM); PBS, 2% BSA, 51.3 ng/ul salmon testes DNA, 50 uM zinc acetate, 200 nM TF, 25 C, 1 h; high values mean tight binding. The settings on record: protein: recombinant; tags: N-terminal polyhistidine and DsRed monomer fusion (pET32a); label: CyDye5-dUTP incorporated in the synthesized complementary strand; 3' TTTTT single-stranded linker to array surface; dsDNA, one strand shown. In a few lines: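 Binding signal is reported as fluorescence intensity per feature (arbitrary units) from an Axon 4000B scanner. Incubation used 200 nM of each Ni–NTA-purified, N-terminally polyhistidine- and DsRed-fused transcription factor from E. coli BL21-CodonPlus on a double-stranded custom Agilent array for 1 h at 25 °C, with 50 µM zinc acetate in the buffer, followed by washing.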
As for “TGGTATCAAAATTGCGGGTAATTAGAGGATTTAATTAAGCCGGAGTCACCTAGTGCAG”, the binding signal was 13000 fluorescence intensity (a.u.).

“AGGATTGGACGTACGTGATCAAATCATTCAGTTTGGACGGCGGAGTCACCTAGTGCAG”: the binding signal was 4780 fluorescence intensity (a.u.).

For the sequence “ATCAACCAGTAATCAATTGACCAAGCGGTTCTTGCGCCTACGGAGTCACCTAGTGCAG”, the binding signal is 4790 fluorescence intensity (a.u.).

As for “ATATGATAGAAAAGTTGTGTATGTATGAAATGTTTGATGTCGGAGTCACCTAGTGCAG”, the binding signal was 9060 fluorescence intensity (a.u.).

Regarding “CCCTAATAAATAGGAAAGTTATATTACTGAATAGTTAAGTCGGAGTCACCTAGTGCAG”, the binding signal is 4640 fluorescence intensity (a.u.).

For “GAGATATTAATGCAAATTATCGGTAGCCAAAATTAATGGGCGGAGTCACCTAGTGCAG”, the binding signal is 4990 fluorescence intensity (a.u.).

For “CCTAATTGGGTCGCTCAGGAGACAGTATACCTTCAACTTTCGGAGTCACCTAGTGCAG”, the binding signal was 40400 fluorescence intensity (a.u.).

“CTGCACTAATTATTTAGTCTCATTAGTTTTATAAAATGCACGGAGTCACCTAGTGCAG”: the binding signal was 25100 fluorescence intensity (a.u.).

As for “GGTGACCGATGATTTTGTAAATCTCAACATATGCTGGTGTCGGAGTCACCTAGTGCAG”, the binding signal was 7180 fluorescence intensity (a.u.).

As to “AATTGAATTTCGAAATTGAAAACCCTGGCCGGGTAGCGTACGGAGTCACCTAGTGCAG”, the binding signal was 3830 fluorescence intensity (a.u.).

For the sequence “CAGTGATGGAGATTTGTGATATTTCGGTGTTGGTAAGCTGCGGAGTCACCTAGTGCAG”, the binding signal was 26200 fluorescence intensity (a.u.).

As to “TAAATTATAATGGTGTAAATTAAAACAAAAGACACATGTGCGGAGTCACCTAGTGCAG”, the binding signal is 13600 fluorescence intensity (a.u.).

With “TCTTGGAGTTGATTATATAAATAAATCGAACGAGCACGAGCGGAGTCACCTAGTGCAG”, the binding signal is 11200 fluorescence intensity (a.u.).

Take “AGCTGCCAATTAAGCTGTGTGTGATGGGTAGCTAACATATCGGAGTCACCTAGTGCAG”: the binding signal was 9800 fluorescence intensity (a.u.).

Take “CAAATTGGAACAAACCAATCCCAAGGACATCATCTTCTCGCGGAGTCACCTAGTGCAG”: the binding signal is 8830 fluorescence intensity (a.u.).

As for “AAATATTAAACGTAGATTAATAACAAAATAAATTATAGATCGGAGTCACCTAGTGCAG”, the binding signal is 4780 fluorescence intensity (a.u.).

As to “TCCTGTTAATTAGACATTTTAGGCGTTAAGTAAGCAGAGGCGGAGTCACCTAGTGCAG”, the binding signal is 39200 fluorescence intensity (a.u.).

“TCCCATTTGTTATCTGATGATTTGTAAAACATAGGCACTTCGGAGTCACCTAGTGCAG”: the binding signal is 10700 fluorescence intensity (a.u.).

In the case of “AGGGTATTGCAGCTCTAATTAATTACTCAAGTGTGTGTGCCGGAGTCACCTAGTGCAG”, the binding signal was 3500 fluorescence intensity (a.u.).

Take “GAGATGATGAATATAATTGGTGGATTGGCTCGAGAATGTTCGGAGTCACCTAGTGCAG”: the binding signal was 36000 fluorescence intensity (a.u.).

On to “ATGATTAAATTAACCAAATGCTTGATACTGGTATCATATACGGAGTCACCTAGTGCAG”, for which the binding signal is 45500 fluorescence intensity (a.u.).

Regarding “GAAGCTGATTGCGAGCTCGTTCCAAGATCTCGAATCGAAGCGGAGTCACCTAGTGCAG”, the binding signal was 9340 fluorescence intensity (a.u.).

As to “AATAGATTAGATTAATAGTAAACCACCTCAATAGTATGTCCGGAGTCACCTAGTGCAG”, the binding signal is 41100 fluorescence intensity (a.u.).

Regarding “TTAATTACTATCATTAGTGTTAAGTATATATTAACTAATGCGGAGTCACCTAGTGCAG”, the binding signal is 25900 fluorescence intensity (a.u.).

For “TCTTAAGCTGATGATCTGTCTATTTCTGTGACAGTACCTCCGGAGTCACCTAGTGCAG”, the binding signal is 7450 fluorescence intensity (a.u.).

As to “CTAATTAAAACTACAAATTTAATTAATCAGTGACAAACAACGGAGTCACCTAGTGCAG”, the binding signal was 14500 fluorescence intensity (a.u.).

Regarding “AACTAATTGCATAGTTTGCATAGAAATCAGAATTAGTGTTCGGAGTCACCTAGTGCAG”, the binding signal was 23900 fluorescence intensity (a.u.).

Turning to “AGGACTAATCACCTCATTAGTCTATACACATTCTCCGTTTCGGAGTCACCTAGTGCAG”, the binding signal is 7680 fluorescence intensity (a.u.).

As to “CCAATGACAACTAGTACTTAATTTGGAACAGAGTGAACAGCGGAGTCACCTAGTGCAG”, the binding signal is 3910 fluorescence intensity (a.u.).

As for “TTTCAAATCATCATTTTGGAGTAACATCACTTTGGAAACCCGGAGTCACCTAGTGCAG”, the binding signal was 3180 fluorescence intensity (a.u.).

With “GTGGGGATTGGAGTTGGAAAAGTTTTACTTTCACAGTGATCGGAGTCACCTAGTGCAG”, the binding signal is 3640 fluorescence intensity (a.u.).

In the case of “CTGTAATTTAACATACAAATATCAATCTTCTTCCAGTTTTCGGAGTCACCTAGTGCAG”, the binding signal was 12100 fluorescence intensity (a.u.).

“AGACTGCTGATGATTACATTCCAAAATGACAGTATTACAGCGGAGTCACCTAGTGCAG”: the binding signal was 9390 fluorescence intensity (a.u.).

With “TGAAATTTAATCTAATTTCTATGATACAAAGTTAATGTTGCGGAGTCACCTAGTGCAG”, the binding signal is 14200 fluorescence intensity (a.u.).

Consider “TCTTCTGGTAATGGAGATGGAGATTACCAAAACTCAATACCGGAGTCACCTAGTGCAG”, for which the binding signal is 3770 fluorescence intensity (a.u.).

Turning to “TATCCGTAATTCACAAAATTGAAAGGACTACTCGAACCTGCGGAGTCACCTAGTGCAG”, the binding signal was 7020 fluorescence intensity (a.u.).

For “TATAACAATAATGATACTGGATTGGCACACCGGAAATTCACGGAGTCACCTAGTGCAG”, the binding signal is 8740 fluorescence intensity (a.u.).

Consider “TTAATTGCAATAAACACAACGGCGTAATCGGATTATAAATCGGAGTCACCTAGTGCAG”, for which the binding signal was 8560 fluorescence intensity (a.u.).

With “CGGTCAAATTATCCAAATTAATTAAAGAGGGAACTCGGTCCGGAGTCACCTAGTGCAG”, the binding signal was 35300 fluorescence intensity (a.u.).

For the sequence “ATTGATTAGATCCATTGTTTTATTCTAACCATAGATTAATCGGAGTCACCTAGTGCAG”, the binding signal is 39400 fluorescence intensity (a.u.).

“GAAGATGACGAGTTTATGAAGGCTGTATACGATAGGCTTGCGGAGTCACCTAGTGCAG”: the binding signal is 4210 fluorescence intensity (a.u.).

For “TTTAGGAATGATTGGACCTAAAGTTTAGGAGTGGTTGATTCGGAGTCACCTAGTGCAG”, the binding signal is 28000 fluorescence intensity (a.u.).
